This note sets out measurements from ChEMBL document CHEMBL4888484, “Replenishing the malaria drug discovery pipeline: Screening and hit evaluation of the MMV Hit Generation Library 1 (HGL1) against asexual blood stage Plasmodium falciparum ,using a nano luciferase reporter read-out” (2022).

The whole screen tested about 150,000 compounds, of which about 540 (0.36%) showed an effect of 50% or more. The list shows a part of the results.

This experiment has as its system Plasmodium falciparum. Kind of experiment: Primary screen in NF54 nanoGlo assay, in single point, at 2uM, 72h; a lower Z score goes with more inhibition. The experiment is classed as functional, Erythrocyte. The conditions noted are these: timepoint 72 hour.
As to `COc1ccc(S(=O)(=O)N[C@H]2COC[C@@H]2OC)cc1Cl`, the “% Inhibition” value was -2% and the Z score came to 0.23.

For the compound `CCOc1ccc(C(=O)N2CCC3(CC2)OC(=O)c2ccccc23)cc1OCC`, the “% Inhibition” value is reported as -32% and the Z score was determined as 6.01.

As for `O=C(Nc1ccc(F)cc1)Nc1cccc(-c2cc3cc(F)ccc3[nH]2)c1`, the “% Inhibition” value came to 10% and the Z score is listed as -1.64.

For `Cc1nc(C(=O)NCCCN2CCOCC2)c(-c2ccccc2Cl)s1`, the “% Inhibition” value was 5% and the Z score is reported as -0.71.

Consider `c1ccc(-n2nnnc2C2(N3CCCC3)CCCC2)cc1`, for which the “% Inhibition” value was -12% and the Z score was determined as 1.7.

On to `CCc1ccnc(CNC(=O)[C@@](C)(O)CCc2ccccc2)c1`, for which the “% Inhibition” value is recorded as -4% and the Z score came to 0.73.

Regarding `O=S(=O)(NCc1nccnc1-c1ccoc1)c1ccc(-n2cccn2)cc1`, the “% Inhibition” value is given as -1% and the Z score is given as 0.17.

Regarding `CCCn1ncc(CN2C[C@H](O)[C@@H](N3CCOCC3)C2)c1C`, the “% Inhibition” value is -3% and the Z score was 0.45.

With `O=C(NC1CCC[C@H]1OCc1ccccc1)c1cncn1-c1cccc(-c2ccccc2C(F)(F)F)c1` (stereo partly specified), the “% Inhibition” value is reported as 20% and the Z score is -2.48.

For `COC(=O)c1cc(NC(=O)[C@H](C)NC(=O)CC2CCCCC2)cc2[nH]ccc12`, the “% Inhibition” value was -7% and the Z score is 0.64.

Turning to `C=C(C)COc1ccc(C(=O)N2C[C@H](N(C)C)C[C@H]2C(=O)O)cc1`, the “% Inhibition” value is on record as -11% and the Z score stood at 1.47.

In the case of `CCN1CC2(CCN(Cc3[nH]c4ccccc4c3C)CC2)OC1=O`, the “% Inhibition” value is reported as 1% and the Z score is -0.14.

For `COc1ccc(C(=O)N2CCCC2)c(OC2CCN(Cc3cnn(C)c3C)CC2)c1`, the “% Inhibition” value is -1% and the Z score is listed as 0.26.

Regarding `O=C([C@H]1CCc2ncc(-c3ccc(F)cc3)n2C1)N1CCCC1`, the “% Inhibition” value is -15% and the Z score is given as 2.82.

With `CC(C)(C(=O)N[C@H]1C[C@@H](C(=O)O)C1)c1ccc(Cl)cc1F`, the “% Inhibition” value is -1% and the Z score is given as 0.06.

Regarding `COc1cnc(NC(=O)c2cc[nH]n2)s1`, the “% Inhibition” value is -6% and the Z score is on record as 0.66.

Regarding `COCCN(CC(=O)N(Cc1ccccc1)Cc1ccc(C)o1)C(=O)c1ccc(F)cc1`, the “% Inhibition” value amounted to 5% and the Z score is -0.79.

Consider `O=C(NC1CCOCC1)N1CC(OC[C@H]2CCOC2)C1`, for which the “% Inhibition” value was 7% and the Z score is given as -0.97.

`COC(=O)c1ccc(N2CCC(C(=O)Nc3nncs3)CC2)nn1`: the “% Inhibition” value was -12% and the Z score was 1.24.

Regarding `CCCc1cc(C(=O)N[C@@H](Cn2ccnc2)C(C)C)[nH]n1`, the “% Inhibition” value is on record as 3% and the Z score was -0.39.

For the compound `COc1ccc(Cl)cc1NC(=O)N1CCC[C@H](Cn2cnc3cccnc32)C1`, the “% Inhibition” value is reported as -18% and the Z score worked out at 2.68.

As for `CS(=O)(=O)C1CCCCC1NCCc1cc2ccccc2o1` (stereo unspecified), the “% Inhibition” value is on record as -4% and the Z score was found to be 0.48.

`O=C(Nc1ccc(-n2cncn2)nc1)N1CCC[C@@H]1CO`: the “% Inhibition” value is 0% and the Z score is -0.01.

In the case of `N#Cc1nccnc1O[C@H]1CCCN(C(=O)NCc2ccc3c(c2)OCO3)C1`, the “% Inhibition” value is on record as -1% and the Z score is 0.1.

On to `CNC[C@H](C)C(=O)NC1CCC(C(C)C)CC1` (stereo partly specified), for which the “% Inhibition” value is on record as -8% and the Z score was found to be 0.89.

For the compound `COc1cccc(C(=O)N2CCC3(CC2)OC[C@@H](C(=O)NCc2ccncc2)N3C(=O)c2cccc(C)c2)c1`, the “% Inhibition” value is on record as -11% and the Z score was determined as 1.96.

With `CS(=O)(=O)Cc1noc(CN2CCCCCc3ccccc32)n1`, the “% Inhibition” value is recorded as -5% and the Z score is reported as 0.96.

Regarding `Cc1cc(CNC(=O)CC2(O)CCCCC2)ccn1`, the “% Inhibition” value is listed as -3% and the Z score was determined as 0.42.

For `Cc1cc(C)c2[nH]c(CN3CCNC(=O)[C@@H]3C)cc(=O)c2c1`, the “% Inhibition” value is reported as -7% and the Z score is on record as 0.97.

In the case of `COCc1nc(C(C)C)nc(N2CCN(C(=O)c3ccc(F)cc3)CC2)c1Cc1ccccc1F`, the “% Inhibition” value is 11% and the Z score is -1.41.

`O=C(NC[C@H]1CN(C2CC2)CCO1)c1cccc(-n2cnnn2)c1`: the “% Inhibition” value is recorded as -14% and the Z score came to 1.68.

`CC(C)[C@H]1CN(c2cc(C3CC3)ncn2)C[C@@H]1NC(=O)C1CCOCC1`: the “% Inhibition” value turned out to be 0% and the Z score is given as -0.08.

Consider `C[C@H]1C(=O)NCCCN1Cc1csc(-c2ccoc2)n1`, for which the “% Inhibition” value was -10% and the Z score was 1.5.

Turning to `CO[C@H]1COC[C@@H]1Nc1nc(N)nc(C)c1Cl`, the “% Inhibition” value is given as 10% and the Z score was -1.37.

Turning to `COCCN1[C@@H]2CN(Cc3nccs3)C[C@@H]2OCCS1(=O)=O`, the “% Inhibition” value is reported as 7% and the Z score is reported as -0.85.

On to `COC1(c2nc(Cc3noc(C)n3)no2)CCCCC1`, for which the “% Inhibition” value is reported as 0% and the Z score was determined as 0.02.

As to `COc1ccc(S(=O)(=O)N2CC(Oc3nccs3)C2)cc1C`, the “% Inhibition” value is recorded as -10% and the Z score was determined as 1.5.

As to `Cn1nc(-c2cccs2)cc1CNC(=O)c1cccnc1`, the “% Inhibition” value was -15% and the Z score is on record as 1.91.

For the compound `Cc1c(S(=O)(=O)N(C)[C@@H](C)c2cccnc2)cnn1C`, the “% Inhibition” value is -2% and the Z score was 0.35.

On to `Cc1nnc(-n2nc(C(F)(F)F)cc2C)[nH]1`, for which the “% Inhibition” value was -2% and the Z score is given as 0.27.

As to `CC1CN(C(=O)CN(CCC(F)(F)F)C2CCC2)CC(C)O1` (stereo unspecified), the “% Inhibition” value was -8% and the Z score amounted to 1.36.

For the compound `O=S(=O)(CCC1CCCO1)N1CCCC1c1ccncc1` (stereo unspecified), the “% Inhibition” value was -16% and the Z score amounted to 1.99.

For the compound `O=C(NC1(C(=O)NC(c2ccccc2)c2ccccc2)CCCC1)c1ccccn1`, the “% Inhibition” value is recorded as 5% and the Z score is reported as -0.59.

As for `O=C(NCCc1cccnc1)c1cn2ccnc(-c3ccccc3)c2n1`, the “% Inhibition” value is recorded as 35% and the Z score is reported as -3.96.

As for `Cc1cc(C)c(S(=O)(=O)N2C[C@H]3OCCN(C)[C@H]3C2)s1`, the “% Inhibition” value is on record as -8% and the Z score was 1.54.

Take `COc1ccc(-c2ncc3c(=O)n(CC(=O)Nc4cc(OC)cc(OC)c4)cnc3n2)cc1`: the “% Inhibition” value is reported as -16% and the Z score was found to be 1.53.

Take `c1ccc2c(-c3cn(C[C@H]4CNCCO4)nn3)ccnc2c1`: the “% Inhibition” value is recorded as -5% and the Z score is 0.42.

Regarding `CCc1cccnc1-c1noc([C@@H]2CN(C)C(=O)CN2)n1`, the “% Inhibition” value is given as -2% and the Z score was 0.34.

Consider `CCN(CC1CC1)c1nnc(-c2ccccn2)n1C[C@H]1CCCCO1`, for which the “% Inhibition” value is recorded as -9% and the Z score turned out to be 1.31.

On to `CCCN(CCc1c[nH]c2ccc(NC(=O)c3cc(F)cc(F)c3)cc12)CC1CC1`, for which the “% Inhibition” value was found to be 6% and the Z score is -0.81.

On to `CCc1nc(NC2CCC(NC(=O)c3ccccc3F)CC2)c2c(C)nn(-c3ccccc3C)c2n1` (stereo unspecified), for which the “% Inhibition” value is recorded as -11% and the Z score is 1.29.

On to `O=C(NCc1cccs1)[C@H]1CN(C(=O)c2ccncc2)CC12CCCCC2`, for which the “% Inhibition” value worked out at 27% and the Z score is recorded as -3.03.

Turning to `COc1cccc(CNC(=O)c2ccc(S(=O)(=O)N3CC(C)CC(C)C3)cc2)c1` (stereo unspecified), the “% Inhibition” value is recorded as -7% and the Z score was determined as 1.05.
